In PubChem BioAssay AID1794844 (National Center for Advancing Translational Sciences (NCATS), 2023):
In all, about 2,800 compounds went through this assay and fewer than 10 were called active. This list was built around the results that the source calls inconclusive (neither active nor inactive); the mix of calls is not that of the screen. The call rests on the fitted dose curve; in most records, active means well fitted inhibition curve with a large enough effect; inconclusive means small, poorly fitted or top-dose-only effect; inactive means no such curve, though single readings can be large or run the other way. A potency beside an inconclusive call is a rough fit, not a confirmed value.
Potency means the concentration at half of the fitted maximal effect; tags describe the fitted curve by direction and shape.

Each compound was assayed against Metallo-beta-lactamase type 2 (Klebsiella pneumoniae) (UniProt C7C422) (assay: qHTS to identify inhibitors of the New Delhi Metallo-beta-lactamase (NDM): Nitrocefin screen against the machine-based learning selections.). Conditions: NDM-1 enzyme, nitrocefin hydrolysis, absorbance 485 nm.
Chain of UniProt C7C422 (C7C422 whole entry, looked up): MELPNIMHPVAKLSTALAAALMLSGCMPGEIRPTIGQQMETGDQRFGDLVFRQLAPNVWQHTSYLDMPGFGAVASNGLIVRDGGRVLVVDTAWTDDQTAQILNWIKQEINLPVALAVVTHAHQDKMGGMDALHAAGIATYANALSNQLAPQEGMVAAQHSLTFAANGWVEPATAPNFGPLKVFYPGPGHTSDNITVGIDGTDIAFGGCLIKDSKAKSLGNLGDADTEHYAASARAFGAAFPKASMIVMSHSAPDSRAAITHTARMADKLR
Source text: Assay Submitter (PI): James Inglese Ph.D., Patricia Dranchak Ph.D., Mahesh Aitha Ph.D. Assay Development and Screening Technology Laboratory (ADST) National Center for Advancing Translational Sciences (NCATS), Rockville, MD National Institute of Health (NIH), Bethesda, Maryland The metallo-beta-lactamases (MBL) are a main antibiotic resistance mechanism evolved by bacteria. There is an urgent clinical need for MBL inhibitors to mitigate this growing threat. To support a machine-based learning study, qHTS has been used to experimentally test inhibitors identified by prediction tools.
PROTOCOL TABLE (as described by Inglese et al., 2007) SEQUENCE No. (e.g., 1, 2, 3, etc.); […] (e.g., enzyme, Incubation, Reagent, etc.); VALUE; DESCRIPTION Primary Screen 1; NDM-1; 4 uL of 3 nM enzyme [2 nM final] in 50 mM HEPES (pH 7.0), 1 uM […], 0.01% Tween20; Use BioRaptr to dispense into two sets of Aurora black, clear bottom high base 1536-well plates 2; Compounds; 23 nL; Use Pin Tool (Wako) to transfer DMSO control and library compounds in DMSO 3; Incubate; >30 min 4a; Reagent; 2 uL of 50 uM nitrocefin [16.7 uM final] to one set of assay plates 4b; Reagent; 2 uL of 150 uM meropenem [50 uM final] to second set of assay plates 5a; Incubate; 15 min 5b; Incubate; 30 min 6a; Detector; Absorbance at 485 nm (bandwidth = 5 nm, 25 flashes/well) on Tecan Infinity 6b; Detector; Absorbance at 300 nm (bandwidth = 5 nm, 25 flashes/well) on Tecan Infinity NOTES (numbers refer to sequence above) 1; Column 1 of each plate received assay buffer without enzyme and columns 2-48 received enzyme for a final assay concentration of 2 nM. 2; Control plate contained DMSO in columns 1, 2, 3, and 4. 3; Compound interaction with enzyme. 4; Nitrocefin and meropenem substrates were prepared in the same assay buffer as step 1 for a final assay concentration of 16.7 uM and 50 uM, respectively, and added to all wells across respective sets of assay plates. 5; Default reader settings were applied for absorbance read at 485 nm (nitrocefin) or 300 nm (meropenem), bandwidth = 5 nm, 25 flashes/well. References: Inglese J, Shamu CE, Guy RK. 2007. Reporting data from high-throughput screening of small-molecule libraries. Nat Chem Biol. doi:10.1038/nchembio0807-438 Yasgar A, Shinn P, Jadhav A, Auld D, Michael S, Zheng W, Austin CP, Inglese J, Simeonov A. 2008. Compound Management for Quantitative High-Throughput Screening. J Lab Autom 13:79 - 89. doi:10.1016/j.jala.2007.12.004
`CCCc1cnc(C)nc1N1CCC2(CC1)CNC(C(=O)O)C2` (stereo unspecified) was tested, and the Potency was inconclusive: 11.9 µM [inhibitor, partial curve]. For `O=C(O)C1CC2(CCN(C(=O)CCc3ccncc3)CC2)CN1` (stereo unspecified), the Potency was inconclusive: 11.9 µM [inhibitor, partial curve]. With `CCCc1nc(C)cc(N2CCC3(CC2)CNC(C(=O)O)C3)n1` (stereo unspecified) the Potency was inconclusive: 9.45 µM [inhibitor, partial curve]. In the case of `Cn1nc(-c2cccs2)cc1[C@H]1CN2CC[C@H]1C[C@@H]2CNCc1ccccn1`, the Potency is reported as inconclusive: 43.3 µM [inhibitor, single point]. `CN(C)CC(=O)Nc1ccc2n(c1=O)C[C@H]1C[C@@H]2CN(C(=O)c2ccc(F)cc2)C1` was tested, and the Potency was inconclusive: 8.64 µM [inhibitor, full curve, poor fit]. For `CCN1CCCNCC12CCOCC2`, the Potency was inconclusive: 21.2 µM [inhibitor, partial curve].
